# Experimental data taken from PMC3128105.
# Sequences of proteins named here, by UniProt entry; tags and fusion partners are left off.
# UniProt P41916: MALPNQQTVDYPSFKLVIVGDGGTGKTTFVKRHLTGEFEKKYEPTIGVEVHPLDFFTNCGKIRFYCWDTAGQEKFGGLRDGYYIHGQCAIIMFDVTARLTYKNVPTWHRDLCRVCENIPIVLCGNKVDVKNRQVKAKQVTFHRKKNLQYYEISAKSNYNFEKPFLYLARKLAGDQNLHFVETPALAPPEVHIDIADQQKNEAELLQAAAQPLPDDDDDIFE
# Results are given in words; binding and its absence hold for the method and conditions named. Some entries that bind do so weakly or less than the wild type. Tags and fused reporters may be left off the sequences shown.
# T1: MOS14 C-terminus (amino acid 282-958), bait fusion (Arabidopsis) (UniProt Q8GUL2)
# T1 sequence: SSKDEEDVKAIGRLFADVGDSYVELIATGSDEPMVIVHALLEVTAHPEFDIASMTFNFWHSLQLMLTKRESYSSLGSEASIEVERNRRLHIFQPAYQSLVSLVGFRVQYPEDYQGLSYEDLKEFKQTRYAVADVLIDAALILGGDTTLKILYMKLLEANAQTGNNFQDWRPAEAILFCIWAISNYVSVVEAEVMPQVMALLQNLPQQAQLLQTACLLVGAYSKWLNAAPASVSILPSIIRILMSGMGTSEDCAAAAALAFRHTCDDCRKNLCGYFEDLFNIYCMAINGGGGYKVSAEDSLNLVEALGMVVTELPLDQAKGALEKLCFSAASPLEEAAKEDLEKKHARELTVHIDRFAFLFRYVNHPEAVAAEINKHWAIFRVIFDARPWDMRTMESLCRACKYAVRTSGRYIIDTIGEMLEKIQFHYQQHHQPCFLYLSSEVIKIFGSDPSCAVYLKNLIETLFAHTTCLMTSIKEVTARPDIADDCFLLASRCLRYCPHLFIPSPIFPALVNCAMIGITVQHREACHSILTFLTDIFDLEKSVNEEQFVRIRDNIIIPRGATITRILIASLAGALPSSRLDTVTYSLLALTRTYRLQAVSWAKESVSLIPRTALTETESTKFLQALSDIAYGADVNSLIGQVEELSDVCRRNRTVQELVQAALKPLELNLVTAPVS
# T2: MOS14 N-terminus (amino acid 1-281), bait fusion (Arabidopsis) (UniProt Q8GUL2)
# T2 sequence: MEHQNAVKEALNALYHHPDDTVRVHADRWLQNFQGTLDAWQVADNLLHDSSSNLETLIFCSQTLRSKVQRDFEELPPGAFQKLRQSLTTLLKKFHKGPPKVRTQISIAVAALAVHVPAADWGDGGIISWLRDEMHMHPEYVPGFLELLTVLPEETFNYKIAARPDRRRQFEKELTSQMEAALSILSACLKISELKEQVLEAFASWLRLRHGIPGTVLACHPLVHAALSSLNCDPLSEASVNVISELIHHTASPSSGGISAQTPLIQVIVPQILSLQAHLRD
# How the values were obtained:
# [1] = biological target: T1, MOS14 C-terminus (amino acid 282-958), bait fusion (Arabidopsis); assay: two-hybrid; MOS14 fragments in the bait vector (pGBKT7a), SR proteins in the prey vector (pGADT7a); yeast strain PJ694α; growth on synthetic dropout medium
# [2] = biological target: T2, MOS14 N-terminus (amino acid 1-281), bait fusion (Arabidopsis); assay: as above
# [3] = biological target: AtRAN1 (Arabidopsis (from the name AtRAN1)) (UniProt P41916); assay: two-hybrid; AtRAN1 in pGBKT7a, MOS14 fragments in pGADT7a; yeast strain PJ694α; synthetic dropout medium with 3 mM 3-AT
Binder,binding [1],binding [2],binding [3]
"AtRSZ21 (protein, UniProt O81127 1-187) MTRVYVGNLDPRVTERELEDEFKAFGVLRNVWVARRPPGYAFLEFDDERDALDAISALDRKNGWRVELSHKDKGGRGGGGGRRGGIEDSKCYECGELGHFARECRRGRGSVRRRSPSPRRRRSPDYGYARRSISPRGRRSPPRRRSVTPPRRGRSYSRSPPYRGSRRDSPRRRDSPYGRRSPYANGV",binds,no binding,–
"AtRS2Z33 (protein, UniProt Q8VYA5 1-290) MPRYDDRYGNTRLYVGRLSSRTRTRDLERLFSRYGRVRDVDMKRDYAFVEFGDPRDADDARHYLDGRDFDGSRITVEFSRGAPRGSRDFDSRGPPPGAGRCFNCGVDGHWARDCTAGDWKNKCYRCGERGHIERNCKNSPKKLRRSGSYSRSPVRSRSPRRRRSPSRSLSRSRSYSRSRSPVRRRERSVEERSRSPKRMDDSLSPRARDRSPVLDDEGSPKIIDGSPPPSPKLQKEVGSDRDGGSPQDNGRNSVVSPVVGAGGDSSKEDRSPVDDDYEPNRTSPRGSESP",binds,no binding,–
"AtRS31 (protein, UniProt P92964 1-264) MRPVFVGNFEYETRQSDLERLFDKYGRVDRVDMKSGYAFVYFEDERDAEDAIRKLDNFPFGYEKRRLSVEWAKGERGRPRGDAKAPSNLKPTKTLFVINFDPIRTKEHDIEKHFEPYGKVTNVRIRRNFSFVQFETQEDATKALEATQRSKILDRVVSVEYALKDDDERDDRNGGRSPRRSLSPVYRRRPSPDYGRRPSPGQGRRPSPDYGRARSPEYDRYKGPAAYERRRSPDYGRRSSDYGRQRSPGYDRYRSRSPVPRGRP",binds,no binding,–

# Now from value to binder:
binding [1],binding [2],binding [3],Binder
–,–,binds,"MOS14 N-terminus (amino acid 1-281), prey fusion (domain or fragment, UniProt Q8GUL2 1-281) MEHQNAVKEALNALYHHPDDTVRVHADRWLQNFQGTLDAWQVADNLLHDSSSNLETLIFCSQTLRSKVQRDFEELPPGAFQKLRQSLTTLLKKFHKGPPKVRTQISIAVAALAVHVPAADWGDGGIISWLRDEMHMHPEYVPGFLELLTVLPEETFNYKIAARPDRRRQFEKELTSQMEAALSILSACLKISELKEQVLEAFASWLRLRHGIPGTVLACHPLVHAALSSLNCDPLSEASVNVISELIHHTASPSSGGISAQTPLIQVIVPQILSLQAHLRD"
–,–,no binding,"MOS14 C-terminus (amino acid 282-958), prey fusion (domain or fragment, UniProt Q8GUL2 282-958) SSKDEEDVKAIGRLFADVGDSYVELIATGSDEPMVIVHALLEVTAHPEFDIASMTFNFWHSLQLMLTKRESYSSLGSEASIEVERNRRLHIFQPAYQSLVSLVGFRVQYPEDYQGLSYEDLKEFKQTRYAVADVLIDAALILGGDTTLKILYMKLLEANAQTGNNFQDWRPAEAILFCIWAISNYVSVVEAEVMPQVMALLQNLPQQAQLLQTACLLVGAYSKWLNAAPASVSILPSIIRILMSGMGTSEDCAAAAALAFRHTCDDCRKNLCGYFEDLFNIYCMAINGGGGYKVSAEDSLNLVEALGMVVTELPLDQAKGALEKLCFSAASPLEEAAKEDLEKKHARELTVHIDRFAFLFRYVNHPEAVAAEINKHWAIFRVIFDARPWDMRTMESLCRACKYAVRTSGRYIIDTIGEMLEKIQFHYQQHHQPCFLYLSSEVIKIFGSDPSCAVYLKNLIETLFAHTTCLMTSIKEVTARPDIADDCFLLASRCLRYCPHLFIPSPIFPALVNCAMIGITVQHREACHSILTFLTDIFDLEKSVNEEQFVRIRDNIIIPRGATITRILIASLAGALPSSRLDTVTYSLLALTRTYRLQAVSWAKESVSLIPRTALTETESTKFLQALSDIAYGADVNSLIGQVEELSDVCRRNRTVQELVQAALKPLELNLVTAPVS"
binds,no binding,–,"AtSR34 (protein, UniProt O22315 1-303) MSSRSSRTVYVGNLPGDIREREVEDLFSKYGPVVQIDLKVPPRPPGYAFVEFDDARDAEDAIHGRDGYDFDGHRLRVELAHGGRRSSDDTRGSFNGGGRGGGRGRGDGGSRGPSRRSEFRVLVTGLPSSASWQDLKDHMRKGGDVCFSQVYRDARGTTGVVDYTCYEDMKYALKKLDDTEFRNAFSNGYVRVREYDSRKDSRSPSRGRSYSKSRSRSRGRSVSRSRSRSRSRSRSPKAKSSRRSPAKSTSRSPGPRSKSRSPSPRRSRSRSRSPLPSVQKEGSKSPSKPSPAKSPIHTRSPSR"
